Test results published in the antibiotic and cytotoxicity screens of Wong et al. (2023).
Some of the results follow.

What was measured:
[1] = system: HSkMC (human skeletal muscle cells); assay: cytotoxicity call (relative viability < 0.9); conditions: 10 µM
[2] = system: HepG2; assay: cytotoxicity call (relative viability < 0.9); conditions: 10 µM
[3] = system: S. aureus RN4220; assay: growth inhibition call (relative growth <= 0.2); conditions: 50 µM

Row | Compound | cytotoxicity call [1] | cytotoxicity call [2] | growth inhibition call [3]
1 | C[C@@H]1CCCCO[C@H](CN(C)C(=O)Nc2ccc3c(c2)OCO3)[C@H](C)CN([C@@H](C)CO)C(=O)c2cc(NC(=O)CCC(F)(F)F)ccc2O1 | inactive | inactive | inactive
2 | C=CCOC(=O)[C@H]1[C@@H]2C(=O)O[C@@H](c3ccccc3)[C@@H](c3ccccc3)N2[C@@H](c2ccc(OCCOC(=O)[C@H]3C[C@H]4C(=O)N5CCC[C@H]5C(=O)N4[C@H]3c3ccc(O)cc3)cc2)[C@]12C(=O)Nc1ccccc12 | inactive | inactive | inactive
3 | C[C@H](CO)N1C[C@H](C)[C@@H](CN(C)C(=O)c2ccc(N3CCN(C)CC3)cc2)OCc2cn(nn2)CCCC1=O | inactive | inactive | inactive
4 | C[C@@H]1CN([C@H](C)CO)C(=O)c2cc(NC(=O)Nc3ccc4c(c3)OCO4)ccc2O[C@H]1CN(C)C(=O)Nc1cccc2ccccc12 | inactive | inactive | inactive
5 | C[C@@H]1CN([C@H](C)CO)C(=O)CCCn2nncc2CO[C@@H]1CN(C)C(=O)Nc1cccc(Oc2ccccn2)c1 | inactive | inactive | inactive
6 | Cc1noc(C)c1S(=O)(=O)Nc1ccc2c(c1)C(=O)N([C@@H](C)CO)C[C@@H](C)[C@H](CN(C)C(=O)Nc1ccccc1)O2 | inactive | inactive | inactive
7 | CC(C)NC(=O)Nc1ccc2c(c1)C(=O)N([C@H](C)CO)C[C@@H](C)[C@@H](CN(C)CC1CCCCC1)OCCCC[C@@H](C)O2 | inactive | inactive | inactive
8 | COc1ccc(S(=O)(=O)Nc2ccc3c(c2)C(=O)N([C@H](C)CO)C[C@H](C)[C@H](CN(C)C(=O)NC2CCCCC2)OCCCC[C@@H](C)O3)cc1 | inactive | inactive | inactive
9 | Cc1cc(C(=O)Nc2cccc3c2O[C@H](CN(C)C(=O)NC2CCCCC2)[C@H](C)CN([C@H](C)CO)C3=O)n(C)n1 | inactive | inactive | inactive
10 | COc1ccc(NC(=O)Nc2ccc3c(c2)C(=O)N([C@@H](C)CO)C[C@@H](C)[C@H](CN(C)C(=O)Nc2ccc(F)cc2)OCCCC[C@@H](C)O3)cc1 | inactive | inactive | inactive
11 | COc1ccc2c3c([nH]c2c1)[C@@H](CO)N(C[C@]13CCN(CC1)CC1CCCC1)C(=O)Nc1cccc(c1)F | inactive | active | inactive
12 | Cn1nccc1CO | inactive | inactive | inactive
13 | C[C@@H]1CN([C@@H](C)CO)C(=O)c2cc(NC(=O)Nc3cccc4ccccc34)ccc2O[C@@H](C)CCCCO[C@H]1CN(C)CC1CC1 | inactive | inactive | inactive
14 | O=C(C[C@@H]1C=C[C@H](NC(=O)c2ccncc2)[C@H](CO)O1)NCc1ccncn1 | inactive | inactive | inactive
15 | C=CCNC1=C2C[C@H](C)C[C@H](OC)[C@@H](O)[C@H](C)/C=C(\C)[C@H](OC(N)=O)[C@H](OC)/C=C/C=C(\C)C(=O)NC(=CC1=O)C2=O | active | active | inactive
16 | COc1ccc(NC(=O)N(C)C[C@@H]2Oc3ccc(NC(=O)C4CC4)cc3CC(=O)N([C@@H](C)CO)C[C@H]2C)cc1 | inactive | inactive | inactive
17 | O=C(N[C@@H]1CC[C@@H](CCNS(=O)(=O)c2ccccc2)O[C@@H]1CO)c1cnccn1 | inactive | inactive | inactive
18 | CC(C)CC(N)=O | inactive | inactive | inactive
19 | CCc1ccc(/C=C2\SC(=O)N(CCCCCCNC(=O)c3ccccc3Nc3ccc([N+](=O)[O-])c4nonc34)C2=O)cc1 | active | active | inactive
20 | C[C@@H]1CN([C@H](C)CO)C(=O)Cc2cc(NC(=O)Nc3cccc4ccccc34)ccc2O[C@@H]1CN(C)C(=O)Nc1ccc(C(F)(F)F)cc1 | inactive | inactive | inactive
21 | COc1cccc(S(=O)(=O)Nc2ccc3c(c2)[C@@H]2C[C@H](CC(=O)NCc4ccccc4F)O[C@H](CO)[C@@H]2O3)c1 | inactive | inactive | inactive

Row | Compound | cytotoxicity call [1] | cytotoxicity call [2] | growth inhibition call [3]
22 | C[C@H](CO)N1C[C@H](C)[C@@H](CN(C)C(=O)NC2CCCCC2)Oc2ccc(NC(=O)C3CC3)cc2C1=O | inactive | inactive | inactive
23 | COc1ccc(NC(=O)N(C)C[C@H]2OCCCC[C@@H](C)Oc3ccc(NC(=O)CCC(F)(F)F)cc3C(=O)N([C@@H](C)CO)C[C@@H]2C)cc1 | inactive | inactive | inactive
24 | Cn1cnc(-c2cc3nccc(Oc4ccc(NC(=S)NC(=O)Cc5ccccc5)cc4F)c3s2)c1 | inactive | inactive | inactive
25 | C[C@H](CO)N1C[C@H](C)[C@H](CN(C)Cc2ccc(C(=O)O)cc2)Oc2ccc(NC(=O)Cn3cnnn3)cc2CC1=O | inactive | inactive | inactive
26 | CN1CCN(C(=O)C[C@@H]2C=C[C@H](NC(=O)Cc3ccccn3)[C@@H](CO)O2)CC1 | inactive | inactive | inactive
27 | C[C@@H]1CCCCO[C@H](CN(C)C(=O)Cc2ccccc2)[C@@H](C)CN([C@H](C)CO)C(=O)c2cc(NC(=O)Nc3cccc4ccccc34)ccc2O1 | inactive | inactive | inactive
28 | C[C@H]1CN([C@@H](C)CO)C(=O)Cc2cc(NC(=O)Cc3cn(C)c4ccccc34)ccc2O[C@@H]1CN(C)Cc1ccc(C(F)(F)F)cc1 | active | active | inactive
29 | CC1(O)CCOC(=O)C1 (stereo not drawn) | inactive | inactive | inactive
30 | COc1ccc(NC(=O)Nc2ccc3c(c2)CC(=O)N([C@H](C)CO)C[C@@H](C)[C@H](CN(C)C(=O)Nc2cccc4ccccc24)O3)cc1 | inactive | inactive | inactive
31 | Cc1noc(C)c1NC(=O)Nc1ccc2c(c1)C(=O)N([C@H](C)CO)C[C@@H](C)[C@@H](CN(C)S(=O)(=O)c1cn(C)cn1)O2 | inactive | inactive | inactive
32 | C=CCNC(=O)[C@H]1[C@@H]2C(=O)O[C@@H](c3ccccc3)[C@@H](c3ccccc3)N2[C@@H](c2ccc(OCCO)cc2)[C@]12C(=O)Nc1ccc(C#CC3=CCCCC3)cc12 | inactive | inactive | inactive
33 | C=CCCCCCCCCC(=O)[O-].C=CCCCCCCCCC(=O)[O-].[Zn+2] | inactive | inactive | inactive
34 | C[C@H](CO)N1C[C@H](C)[C@@H](CN(C)C(=O)Nc2ccc(C(F)(F)F)cc2)Oc2ccc(NC(=O)Nc3cccc4ccccc34)cc2C1=O | inactive | inactive | inactive
35 | CC(=O)N[C@@H](Cc1ccc(F)cc1)C(=O)O | inactive | inactive | inactive
36 | CC(=O)NCC(=O)N1CCOC[C@]2(CC[C@@H](Cn3cccn3)O2)C1 | inactive | inactive | inactive
37 | COc1cccc(NC(=O)N(C)C[C@@H]2Oc3ncc(C#Cc4cccnc4)cc3C(=O)N([C@@H](C)CO)C[C@@H]2C)c1 | inactive | inactive | inactive
38 | Cc1noc(C)c1S(=O)(=O)Nc1ccc2c(c1)CC(=O)N([C@@H](C)CO)C[C@H](C)[C@H](CN(C)Cc1ccc(-c3ccccc3)cc1)O2 | inactive | inactive | inactive
39 | CN(C)C(=O)C[C@@H]1CC[C@@H]2[C@H](COC[C@H](O)CN2S(=O)(=O)c2ccccc2)O1 | inactive | inactive | inactive
40 | C[C@@H]1CN([C@H](C)CO)C(=O)c2cc(NC(=O)C3CC3)ccc2O[C@H]1CN(C)S(=O)(=O)c1ccc(Cl)cc1 | inactive | inactive | inactive
41 | CN(C)CCN1C(=O)CO[C@H]2CN(C(=O)NCc3cccnc3)C[C@@H]21 | inactive | inactive | inactive
